Results from the supplement of paper PMC10126150.
Sequences with one replicate were seen in a single cluster, so their values are uncertain.

Test system: ATP
Experiment: switch fluorescence ratio, 500 uM ATP over buffer (Cy3 cluster intensity, sum of 5 cycles each) (fold (ratio)); higher = stronger signal-on switching upon ATP binding; sequences stand for … in TCGTCGGCAGCGTCAGATGTGTATAAGAGACAGTTTTTTTTTTTTTTTTTTTTTTTTT…TC
Details: aptamer strand: ATP DNA aptamer (quencher-CACCTGGGGGAGTATTGCGGAGGAAGG + anchor), 100 nM annealed; ATP concentration: 500 uM; one replicate
Procedure, shortened: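 Between each of five buffer/ATP cycles, the flow-cell was stripped with NaOH and re-annealed. Each cycle imaged Cy3-labelled switching-strand clusters, annealed to 100 nM quencher-labelled ATP aptamer on a modified Illumina MiSeq flow-cell, first in selection buffer and then after 15 min with 500 uM ATP at 22 °C. The fluorescence ratio is summed target-cycle over summed buffer-cycle Cy3 intensity per cluster, averaged per switch-domain sequence, with clusters outside 100-1000 RFU excluded.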
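Note: ATP exposure 15 min at 22 °C before imaging.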

Sequence | switch fluorescence ratio
CCAATCAAAT | 1.04
TAAGCAGTGC | 1.43
GAAGGCAGT | 0.999
TCTATAAACA | 1.03
CTGGCATTAA | 1.13
TCGAGATACC | 1.09
ATACCAAGGC | 1.07
TTCCACTCGG | 1.01
AGATCGTACG | 0.958
GGTACGAAGG | 0.956
AGAGGCATTT | 0.982
TAAAAATTTC | 0.977
ATGGATTAAG | 1.01
CTGAGACAGT | 1.01
TCGGGTATG | 1.09
AATCCCTCAC | 1.07
AATCATATGC | 1.02
TGATAACAAC | 0.967
TCCATAGAG | 0.996
AGTTTCGCAA | 4.05
CTCCACAGGC | 1.75
CATATATCTA | 0.956
CCCTTGGTGA | 1.99

Sequence | switch fluorescence ratio
TTCCGCCATA | 1.87
TCTATCGCTA | 1.8
TAACAACTCC | 1.07
TTGGAGCGGA | 1.14
CGCCTTATCA | 1.14
CGGCGCGGTT | 1.04
CTCTCTGAAA | 1.21
GCATTCGCGA | 1.26
AGCTCGGTTG | 0.984
AGCGCGTTAT | 0.996
GTCGATTATG | 0.98
TTTGTAATGT | 1
CATCACCTGA | 1.01
AATGGGACCA | 1.15
GACGAGGGGT | 1
CGTTTAATCT | 0.984
CTTTGACTTC | 0.985
GGTTTGGAAA | 0.924
CGGCATTTAT | 0.992
GCTTTAACTA | 0.998
ATGTAGGGAT | 0.948
ACCCTTCTAG | 1.06
TCAAAATGGT | 0.99

Sequence | switch fluorescence ratio
TCCCCACTCA | 1.09
CAAAGGACGT | 0.95
AGTTGGTGTG | 0.974
ATCGGTACTA | 0.996
GTATTGGTTT | 0.994
GCACGATTAA | 1.05
GCGGTCCTTG | 1.01
GTTTTAAAAT | 0.964
TGCAGGCGAG | 1.03
CGTAAGGGCC | 1.04
TCTAATCAGG | 0.952
CAGAATTGTA | 0.998
TGGAACAC | 1
CGCCTCTATT | 1.07
CTTACCCTTA | 1.02
GGCCCACATA | 1.01
GAGCAAGTAC | 2
ACCACCAGTC | 1.12
CATGTGGTTC | 0.97
ACAAAGTCGG | 1
AGATTATGAT | 0.99
TAGATGAAG | 0.992
CACCCGAGTG | 1.46

Sequence | switch fluorescence ratio
AATTTAGTGG | 0.991
CCCGTGAGTA | 1.06
AGTCGGCGTG | 1.02
GACAGGTACT | 1.08
ATTGTAAGAG | 1.03
CAAGCATCCG | 1.04
TACTATGATG | 0.992
GACATATTCT | 0.989
TCGTAGTGAG | 0.995
GTCCAGTAAA | 1.01
AAAACCTCGT | 1.03
AGTCAAAATC | 0.994
TGGGGAAACA | 1.02
CAGTGGGGAG | 1.05
CCTGGTATGT | 0.951
ACGAACTTCT | 1.27
ATGATGAGT | 0.995
CTTTCAGTAA | 1.03
TTATCTGCAC | 1.08
TAGGTGTCTT | 1
AATGTGCATG | 0.93
GCGGGTCGCG | 1.01
TAAGACGCTC | 1.24

Sequence | switch fluorescence ratio
AGGTAGCCGC | 0.994
TGGGCGGGCC | 1.01
CGTTATGGTG | 1.05
TGATACGGGT | 1.01
CGCCGGATTA | 0.976
TTCTAGTGCG | 0.997
TCGAAGTTCT | 0.969
TATGATGAGA | 0.993
TCGTCACGT | 0.996
CACATAGAT | 1.08
CATGTGGATT | 1.02
AATCTAGTTT | 1
GTCGTTCAGC | 0.973
CCAAGCCCAT | 1.17
AAACATTCTA | 1
GGAACTGAAT | 0.996
GTTGGGAAAT | 1.01
TTAAAGCGCA | 1
GACTGCCTGG | 1.03
TGACGAAA | 1.13
GGAGTTACCA | 1.01
AGTGGGGTAT | 1.01
TAAAAATTCG | 1.01

Sequence | switch fluorescence ratio
AGCGACGTGT | 0.996
GTATCTCACA | 1.02
AAAGAGAGA | 1.02
AGCTACGACG | 1.15
GTCCTTCGGA | 0.985
GGCACGGTTA | 1.11
CGCAAAAACA | 1.07
AGTCGGCCGC | 0.924
CTATAGTCTA | 1.03
TTGCACTTCG | 0.999
CATTATTGCG | 0.994
ACTAGAGATA | 1.02
CAGATGTCCG | 1.01
GTATAAGCAG | 1
TATCGTATAT | 0.97
TTTGCCGGAT | 0.963
CGTCACAAGG | 1.04
GGAAAAGCTG | 1.02
TAGTTCAATC | 1.05
GCTATCAGCA | 1
TTTAGGGGTG | 1.02
CGATTCTTCG | 1.05
GGTGATAACC | 0.95

Sequence | switch fluorescence ratio
AGTGAAGTGC | 0.951
ACGTAGGAGG | 1.06
TGCGTTTGAG | 1.01
GATGAGTGCG | 1.05
TCGTGCGCTT | 1.32
TATCTTGTAC | 1.03
TCTTTTCCC | 1.04
CATGGGTTGT | 0.984
AATCAGGTGT | 2.56
GAGGTGTTAT | 1.05
CTATTAGTGC | 1.02
ACATAAATAG | 1.12
CAGTTGCTCT | 1.02
GAAGTTGGTA | 0.963
AATGAGGAAG | 1.05
ATGAGGGGC | 0.924
AGTAGGTTTA | 0.994
CGTGAATGGA | 1.02
TTGCTACCCG | 1.05
